# Data from the supplement of paper PMC8047034.
# Counter-ions that a name gives are not always drawn. The list shows a part of the results. Many values rest on one well or one pass, so single values are uncertain.
# Key:
# OVCAR4 = assay: log2 surviving fraction (library drug vs vehicle, or drug + carboplatin vs carboplatin alone; relative to plate median); ovarian cancer lines: OVCAR4 is platinum-sensitive and Ov4Carbo platinum-resistant; higher = more cell survival; conditions: library drug concentration 10 µM, 7 days
# Ov4Carbo = assay: as above; conditions: library drug concentration 10 µM, 7 days
SMILES,log2 surviving fraction (OVCAR4; carboplatin co-treatment 0 µM),log2 surviving fraction (OVCAR4; carboplatin co-treatment 5 µM),log2 surviving fraction (Ov4Carbo; carboplatin co-treatment 0 µM),log2 surviving fraction (Ov4Carbo; carboplatin co-treatment 5 µM)
CN(C)[C@@H]1C(O)=C(C(N)=O)C(=O)[C@@]2(O)C(O)=C3C(=O)c4c(O)cccc4[C@@](C)(O)[C@H]3[C@H](O)[C@@H]12 [Oxytetracycline dihydrate],0.8,0.775,0.659,1.81
CN(C)CCN(Cc1cccs1)c1ccccn1 [Methapyrilene HCl],-0.183,1.24,-0.0474,-0.975
Cc1onc(-c2c(Cl)cccc2Cl)c1C(=O)N[C@@H]1C(=O)N2[C@@H]1SC(C)(C)[C@@H]2C(=O)O [Dicloxacillin Sodium],0.672,0.739,1.72,1.1
C[C@H](CS)C(=O)N1CCC[C@H]1C(=O)O [Captopril (Capoten)],1.79,-0.437,1.02,1.71
CN[C@@H]1[C@H](O[C@H]2[C@H](O[C@H]3[C@H](O)[C@@H](O)[C@H](N=C(N)N)[C@@H](O)[C@@H]3N=C(N)N)O[C@@H](C)[C@]2(O)C=O)O[C@@H](CO)[C@H](O)[C@H]1O [Streptomycin sulfate],0.845,0.365,1.64,0.832
O=c1oc2cc(O)ccc2s1 [Tioxolone],-0.325,-0.238,-0.165,-0.229
O=C(O)COCCN1CCN(C(c2ccccc2)c2ccc(Cl)cc2)CC1 (stereo unspecified) [Cetirizine Dihydrochloride],1.21,0.574,0.12,-0.27
CCCCC(=O)N(Cc1ccc(-c2ccccc2-c2nnn[nH]2)cc1)[C@H](C(=O)O)C(C)C [Valsartan (Diovan)],0.524,-0.13,0.433,0.8
CCCC(=O)OCOC(=O)C1=C(C)NC(C)=C(C(=O)OC)C1c1cccc(Cl)c1Cl (stereo unspecified) [Cleviprex (Clevidipine)],0.48,0.19,1.18,0.886
Cc1ccc(N(CC2=NCCN2)c2cccc(O)c2)cc1 [Phentolamine mesilate],0.891,1.97,-1.5,1.26
C=C[C@]1(C)C[C@@H](OC(=O)CS[C@@H]2C[C@H]3CC[C@@H](C2)N3C)[C@]2(C)[C@H](C)CC[C@]3(CCC(=O)[C@H]32)[C@@H](C)[C@@H]1O [Retapamulin],-1.21,-1.22,-2,-2.12
COC(=O)C1=C(C)NC(C)=C(C(=O)OCC(C)C)C1c1ccccc1[N+](=O)[O-] (stereo unspecified) [Nisoldipine (Sular)],0.0308,-0.526,-0.981,-0.587
O=c1n(CCCN2CCN(c3cccc(Cl)c3)CC2)nc2ccccn12 [Trazodone hydrochloride (Desyrel)],0.197,0.201,0.464,0.37
CCOc1ccc2ccccc2c1C(=O)N[C@@H]1C(=O)N2[C@@H]1SC(C)(C)[C@@H]2C(=O)O [nafcillin sodium monohydrate],0.297,0.947,0.0814,0.235
CC1(C)S[C@@H]2[C@H](NC(=O)[C@H](N)c3ccc(O)cc3)C(=O)N2[C@H]1C(=O)O [Amoxicillin (Amoxycillin)],0.41,-0.131,0.213,-0.0351
NCC[C@H](O)C(=O)N[C@@H]1C[C@H](N)[C@@H](O[C@H]2O[C@H](CN)[C@@H](O)[C@H](O)[C@H]2O)[C@H](O)[C@H]1O[C@H]1O[C@H](CO)[C@@H](O)[C@H](N)[C@H]1O [Amikacin sulfate],0.771,1.81,0.667,1.59
CCCN[C@H]1CCc2nc(N)sc2C1 [Pramipexole dihydrochloride monohydrate],-0.883,0.698,0.0786,-1.08
O[C@@H]1CO[C@H]2[C@@H]1OC[C@@H]2O [Isosorbide],0.459,0.282,0.344,-1.35
O=c1c(-c2ccc(O)cc2)coc2cc(O)ccc12 [Daidzein],0.271,0.00788,0.196,0.0739
O=C(O)c1cc(/N=N/c2ccc(O)c(C(=O)O)c2)ccc1O [olsalazine sodium],0.172,0.0462,0.428,0.957
CNCC[C@@H](Oc1ccccc1C)c1ccccc1 [Atomoxetine HCl],0.555,-0.134,-1.85,-1.56
CN1CCC(=C2c3ccccc3CCc3cccnc32)CC1 [Azatadine dimaleate],0.137,-0.715,-0.903,-0.913
"Cc1cn([C@@H]2C[C@@H](O)[C@H](CO)O2)c(=O)[nH]c1=O [Telbivudine (Sebivo, Tyzeka)]",0.718,-0.364,0.11,0.171
CC(C)(Sc1cc(C(C)(C)C)c(O)c(C(C)(C)C)c1)Sc1cc(C(C)(C)C)c(O)c(C(C)(C)C)c1 [Probucol],-0.327,-0.577,-0.283,-0.268
CC(C)NCC(O)COc1cccc2ccccc12 (stereo unspecified) [Propranolol HCl],-0.0592,-0.529,-0.783,-1.39
COC(=O)[C@H]1[C@H]2C[C@@H]3c4[nH]c5cc(OC)ccc5c4CCN3C[C@H]2C[C@@H](OC(=O)c2cc(OC)c(OC)c(OC)c2)[C@@H]1OC [Reserpine],-7.97,-1.93,-4.57,-4.03
Cc1onc(-c2ccccc2)c1-c1ccc(S(N)(=O)=O)cc1 [Bextra (valdecoxib)],0.594,0.451,1.32,1.48

SMILES,log2 surviving fraction (OVCAR4; carboplatin co-treatment 0 µM),log2 surviving fraction (OVCAR4; carboplatin co-treatment 5 µM),log2 surviving fraction (Ov4Carbo; carboplatin co-treatment 0 µM),log2 surviving fraction (Ov4Carbo; carboplatin co-treatment 5 µM)
Cc1ccc(C(=O)C(C)CN2CCCCC2)cc1 (stereo unspecified) [Tolperisone HCl],0.6,-0.249,0.191,-1.98
C[C@@H](O)[C@H]1C(=O)N2C(C(=O)O)=C(S[C@@H]3CN[C@H](CNS(N)(=O)=O)C3)[C@H](C)[C@H]12 [Doripenem Hydrate],-0.186,1.03,0.84,0.154
CC(C)NCC(O)c1ccccc1Cl (stereo unspecified) [Clorprenaline HCL],0.231,0.191,0.478,1.08
CCC1(C)CC(=O)NC(=O)C1 [Bemegride],-0.21,1.05,-0.547,0.258
CC(C(=O)O)c1cccc(Oc2ccccc2)c1 (stereo unspecified) [Fenoprofen calcium hydrate],0.695,0.139,-0.614,-0.00879
O=C(O)C[C@H](O)C[C@H](O)/C=C/c1c(C2CC2)nc2ccccc2c1-c1ccc(F)cc1 [Pitavastatin calcium (Livalo)],-6.08,-5.51,-5.57,-5.17
C/C(O)=C(\C#N)C(=O)Nc1ccc(C(F)(F)F)cc1 [Teriflunomide],-0.599,-0.778,0.417,1.01
O=C(C1CCCCC1)N1CC(=O)N2CCc3ccccc3C2C1 (stereo unspecified) [Praziquantel (Biltricide)],0.424,0.509,0.667,0.23
CS(=O)(=O)c1ccc(C2=C(c3ccccc3)C(=O)OC2)cc1 [Rofecoxib (Vioxx)],0.336,-0.456,-0.405,-0.0533
C=CCOc1ccccc1OCC(O)CNC(C)C (stereo unspecified) [Oxprenolol HCl],-0.17,-0.527,-0.56,-0.351
Cc1ccnc(NS(=O)(=O)c2ccc(N)cc2)n1 [Sulfamerazine],0.105,0.447,-0.4,-0.0179
Cc1ccc(S(=O)(=O)NC(=O)NN2CCCCCC2)cc1 [Tolazamide],0.124,0.265,-0.397,0.289
CC(C)NCC(O)c1cc(O)cc(O)c1 (stereo unspecified) [Metaproterenol Sulfate],0.995,-0.625,0.0638,0.222
C#Cc1cccc(Nc2ncnc3cc(OCCOC)c(OCCO)cc23)c1 [OSI-420 (Desmethyl Erlotinib)],-4.08,-1.97,-2.62,-3.13
CC[N+]1(C)CCCC(OC(=O)C(O)(c2ccccc2)c2ccccc2)C1 (stereo unspecified) [Pipenzolate Bromide],0.257,-0.453,0.78,0.197
CCCCOc1cc(C(=O)NCCN(CC)CC)c2ccccc2n1 [Dibucaine HCL],0.501,-0.214,-0.364,-0.0255
O=C(C[S+]([O-])Cc1ccco1)NC/C=C\COc1cc(CN2CCCCC2)ccn1 (stereo unspecified) [Lafutidine],1.64,-0.989,1.68,0.903
CS(=O)(=O)CCNCc1ccc(-c2ccc3ncnc(Nc4ccc(OCc5cccc(F)c5)c(Cl)c4)c3c2)o1 [Lapatinib],-0.869,1.35,-1.06,-6.03
CCCCCCCCCCCCCCCC[n+]1ccccc1 [Cetylpyridinium Chloride],-9.17,-7.77,-8.36,-7.68
Nc1c2c(nc3ccccc13)CCCC2 [Tacrine HCl],-0.748,-6.83,-0.172,-0.0302
CC1(C)[C@H](C(=O)O)N2C(=O)C[C@H]2S1(=O)=O [Sulbactam sodium (Unasyn)],0.00957,-0.343,0.593,0.488
CC(N)C12CC3CC(CC(C3)C1)C2 (stereo unspecified) [Rimantadine (Flumadine)],0.028,-0.489,-1.25,-0.431
C[C@]12CC[C@H](O)CC1=CC[C@@H]1[C@@H]2CC[C@]2(C)C(=O)CC[C@@H]12 [Dehydroepiandrosterone (DHEA)],-0.215,-0.00608,0.65,0.0838
COc1cc2c(cc1OC)CC(=O)N(CCCN(C)C[C@H]1Cc3cc(OC)c(OC)cc31)CC2 [Ivabradine HCl (Procoralan)],1.13,0.277,1.05,0.129
CCCNC(C)C(=O)Nc1ccccc1C (stereo unspecified) [Prilocaine],1.03,-0.233,0.179,0.116
C=C1/C(=C\C=C2/CCC[C@]3(C)[C@@H]([C@H](C)CCCC(C)(C)O)CC[C@@H]23)C[C@@H](O)C[C@@H]1O [Calcitriol (Rocaltrol)],-1.44,-2.03,-0.54,-1.05
CCCCCCCN(CC)CCCC(O)c1ccc(NS(C)(=O)=O)cc1 (stereo unspecified) [Ibutilide fumarate],-1.08,-1.43,-1.15,-1.48
